# Data published in ChEMBL document CHEMBL5050857, “Mettl3 modulators” (2021).
# Target: N6-adenosine-methyltransferase catalytic subunit (Homo sapiens, UniProt Q86U44)
# Test: Inhibition of METTL3 (unknown origin) using UCUGGACUAAA-biotin and 3H-SAM as substrates preincubated for 5 mins followed by substrate addition incubated for 30 mins by TopCount scintillation counting method
# UniProt Q86U44, sequence (Q86U44 whole entry): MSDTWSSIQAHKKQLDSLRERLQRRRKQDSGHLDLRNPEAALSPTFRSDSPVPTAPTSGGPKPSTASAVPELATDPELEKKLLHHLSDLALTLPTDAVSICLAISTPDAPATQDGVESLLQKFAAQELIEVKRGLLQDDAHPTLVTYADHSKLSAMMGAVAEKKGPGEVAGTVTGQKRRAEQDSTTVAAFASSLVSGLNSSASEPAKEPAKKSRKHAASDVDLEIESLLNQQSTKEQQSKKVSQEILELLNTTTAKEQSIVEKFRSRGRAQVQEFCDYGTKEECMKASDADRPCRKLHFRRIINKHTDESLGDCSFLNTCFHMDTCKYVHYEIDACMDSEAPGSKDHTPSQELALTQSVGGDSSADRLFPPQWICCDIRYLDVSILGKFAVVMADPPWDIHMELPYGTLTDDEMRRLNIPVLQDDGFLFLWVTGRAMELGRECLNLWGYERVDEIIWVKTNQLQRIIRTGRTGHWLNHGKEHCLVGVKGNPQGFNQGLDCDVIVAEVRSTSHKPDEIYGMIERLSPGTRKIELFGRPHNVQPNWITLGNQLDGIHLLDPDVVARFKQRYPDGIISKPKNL
row,SMILES,IC50
1,CCCC(=O)c1cn([C@@H]2O[C@H](COc3ccc4ccc(NC)nc4c3)[C@@H](O)[C@@H]2F)c2ncnc(N)c12,≤ 0.1 µM
2,Nc1ncnc2c1ccn2[C@@H]1C[C@H](CCc2ccc3c(OCC4CC4)ccnc3c2)[C@@H](O)[C@H]1O,≥ 1 µM
3,Nc1ncnc2c1ccn2[C@@H]1C[C@H](CCc2ccc3[nH]cnc3c2)[C@@H](O)[C@H]1O,≥ 1 µM
4,Nc1ncnc2c1ccn2[C@@H]1C[C@H](CCc2cnc3cccnc3c2)[C@@H](O)[C@H]1O,≥ 1 µM
5,Cn1ccc(-c2cn([C@H]3C[C@H](O)[C@@H](COc4ccc5ccc(N6CC(N)C6)nc5c4)O3)c3ncnc(N)c23)n1,< 0.01 µM
6,CCNc1ccc2ccc(CC[C@H]3C[C@@H](n4cc(-n5cccn5)c5c(N)ncnc54)C[C@@H]3O)cc2n1,< 0.01 µM
7,Nc1ncnc2c1ccn2[C@@H]1C[C@H](CCc2cccnc2)[C@@H](O)[C@H]1O,≥ 1 µM
8,Nc1ncnc2c1ccn2[C@@H]1C[C@H](CCc2ccc3cccnc3n2)[C@@H](O)[C@H]1O,≥ 1 µM
9,Nc1ncnc2c1ccn2[C@@H]1C[C@H](CCc2ccc3c(OCc4ccccc4)ccnc3c2)[C@@H](O)[C@H]1O,≥ 1 µM
10,CNC(=O)Nc1cccc(CC[C@H]2C[C@@H](n3ccc4c(N)ncnc43)[C@H](O)[C@@H]2O)c1,≥ 1 µM
11,Nc1ncnc2c1ccn2[C@@H]1C[C@H](CCc2ccc3[nH]ncc3c2)[C@@H](O)[C@H]1O,≥ 1 µM
12,CNc1nc2cc(OC[C@H]3O[C@@H](n4cc(-n5ccc(C)n5)c5c(N)ncnc54)C[C@@H]3O)ccc2cc1F,≥ 1 µM
13,Nc1ncnc2c1c(-c1cnccn1)cn2[C@@H]1O[C@H](COc2ccc3ccc(N4CCC4)nc3c2)[C@@H](O)[C@@H]1F,< 0.01 µM
14,Cn1ccc(-c2cn([C@H]3C[C@H](O)[C@@H](CCc4ccc5ccc(N6CCC6)nc5c4)O3)c3ncnc(N)c23)n1,< 0.01 µM
15,Nc1ncnc2c1ccn2[C@@H]1C[C@H](CCc2ccc3cncnc3c2)[C@@H](O)[C@H]1O,≥ 1 µM
16,CCc1cc(N)c2ccc(OC[C@H]3O[C@@H](n4cc(-c5ccn(C)n5)c5c(N)ncnc54)[C@@H](F)[C@@H]3O)cc2n1,< 0.01 µM
17,Nc1ncnc2c1ccn2[C@@H]1C[C@H](CCc2ccc3[nH]c(=O)[nH]c3c2)[C@@H](O)[C@H]1O,≥ 1 µM

row,SMILES,IC50
1,Nc1ncnc2c1ccn2[C@@H]1C[C@H](CCc2ccc3scnc3c2)[C@@H](O)[C@H]1O,≥ 1 µM
2,Nc1ncnc2c1ccn2[C@@H]1C[C@H](CCc2ccc3cn[nH]c3c2)[C@@H](O)[C@H]1O,≥ 1 µM
3,Nc1ncnc2c1ccn2[C@@H]1C[C@H](CCc2cccc(NC(=O)C3CC3)c2)[C@@H](O)[C@H]1O,≥ 1 µM
4,Cc1ccn(-c2cn([C@@H]3O[C@H](COc4ccc5ccc(N6CC(O)C6)nc5c4)[C@@H](O)[C@@H]3F)c3ncnc(N)c23)n1,< 0.01 µM
5,CNc1nc2cc(OC[C@H]3O[C@@H](n4cc(-c5ccn(C)n5)c5c(N)ncnc54)[C@@H](F)[C@@H]3O)ccc2[nH]1,< 0.01 µM
6,Cc1cc2c(NCCc3ccccc3)ncnc2n1[C@@H]1C[C@H](CCc2ccc3ccc(N)nc3c2)[C@@H](O)[C@H]1O,≥ 1 µM
7,Nc1cc2cc(CC[C@H]3C[C@@H](n4ccc5c(N)ncnc54)[C@H](O)[C@@H]3O)ccc2cn1,≥ 1 µM
8,NC(=O)Nc1cccc(CC[C@H]2C[C@@H](n3ccc4c(N)ncnc43)[C@H](O)[C@@H]2O)c1,≥ 1 µM
9,Nc1ccc2cc(CC[C@H]3C[C@@H](n4ccc5c(NCCc6ccccc6)ncnc54)[C@H](O)[C@@H]3O)ccc2n1,≥ 1 µM
10,CNc1ccc2ccc(OC[C@H]3O[C@@H](n4cc(-c5cc(C)n(C)n5)c5c(N)ncnc54)[C@@H](F)[C@@H]3O)cc2n1,≤ 0.1 µM
11,Nc1cccc2ccc(CC[C@H]3C[C@@H](n4ccc5c(N)ncnc54)[C@H](O)[C@@H]3O)cc12,≥ 1 µM
12,O[C@@H]1[C@@H](CCc2ccc3[nH]ncc3c2)C[C@@H](n2ccc3c(NCCc4ccccc4)ncnc32)[C@@H]1O,≥ 1 µM
13,COc1cccc(CC[C@H]2C[C@@H](n3ccc4c(N)ncnc43)[C@H](O)[C@@H]2O)n1,≥ 1 µM
14,Nc1ncnc2c1ccn2[C@@H]1C[C@H](CCc2ccc3cc(C#Cc4ccccc4)cnc3c2)[C@@H](O)[C@H]1O,≥ 1 µM
15,CCc1nc2cc(OC[C@H]3O[C@@H](n4cc(-c5ccn(C)n5)c5c(N)ncnc54)[C@@H](F)[C@@H]3O)ccc2o1,≥ 1 µM
16,Nc1ncnc2c1ccn2[C@@H]1C[C@H](CCc2cccc(=O)[nH]2)[C@@H](O)[C@H]1O,≥ 1 µM

# Now from value to compound:
row,IC50,SMILES
1,≥ 1 µM,Cc1cc2c(N)ncnc2n1[C@@H]1C[C@H](COc2ccc3ccc(N)nc3c2)[C@@H](O)[C@H]1O
2,≥ 1 µM,Nc1ccc2ccc(CC[C@H]3C[C@@H](n4ccc5c(N)ncnc54)[C@H](O)[C@@H]3O)cc2c1
3,≥ 1 µM,Cn1ccc(-c2cn([C@@H]3O[C@H](COc4ccc5cnc(C(=O)N6CCC6)nc5c4)[C@@H](O)[C@@H]3F)c3ncnc(N)c23)n1
4,≥ 1 µM,Nc1ccc2ccc(NC[C@H]3C[C@@H](n4ccc5c(N)ncnc54)[C@H](O)[C@@H]3O)cc2n1
5,≥ 1 µM,CNc1ncnc2c1ccn2[C@@H]1C[C@H](CCc2ccc3ccc(N)nc3c2)[C@@H](O)[C@H]1O
6,≥ 1 µM,Cc1cc2c(N)ncnc2n1[C@@H]1C[C@H](CCc2ccc3ccc(N)nc3c2)[C@@H](O)[C@H]1O
7,≥ 1 µM,Cc1cn([C@@H]2O[C@H](COc3ccc4ccc(N)nc4c3)[C@@H](O)[C@H]2O)c2ncnc(N)c12
8,≤ 0.1 µM,Cn1ccc(-c2cn([C@@H]3O[C@H](CCC4CCNCC4)[C@@H](O)[C@@H]3F)c3ncnc(N)c23)n1
9,≤ 1 µM,Nc1ccc2ccc(CC[C@H]3C[C@@H](n4cc([C@@H]5CCOC5)c5c(N)ncnc54)[C@H](O)[C@@H]3O)cc2n1
10,≥ 1 µM,Cc1cc2c(N)ncnc2n1[C@@H]1C[C@H](CCc2ccc3nc(N)ccc3c2)[C@@H](O)[C@H]1O
11,≥ 1 µM,Nc1ncnc2c1ccn2[C@@H]1C[C@H](CCc2ccc3ccc(Nc4ccccc4)nc3c2)[C@@H](O)[C@H]1O
12,≥ 1 µM,Cc1nc(N)c2ccn([C@@H]3C[C@H](CCc4ccc5ccc(N)nc5c4)[C@@H](O)[C@H]3O)c2n1
13,≤ 1 µM,Nc1ncnc2c1ccn2[C@@H]1O[C@H](COc2ccc3cnc(N[C@H]4C[C@@H](N)C4)nc3c2)[C@@H](O)[C@@H]1F
14,< 0.01 µM,Nc1ccc2ccc(CO[C@H]3C[C@@H](n4ccc5c(N)ncnc54)[C@H](O)[C@@H]3O)cc2n1
15,≥ 1 µM,Cc1cn([C@@H]2O[C@H](COc3ccc4ccc(NCC5CC5)nc4c3)[C@@H](O)[C@H]2O)c2ncnc(N)c12
16,≤ 0.1 µM,Nc1ccc2ccc(OC[C@H]3O[C@@H](n4ccc5c(N)ncnc54)[C@H](O)[C@@H]3O)cc2n1
17,< 0.01 µM,CN(c1ncc2ccc(OC[C@H]3O[C@@H](n4cc(-c5ccn(C)n5)c5c(N)ncnc54)[C@@H](F)[C@@H]3O)cc2n1)C1CCC1
18,≥ 1 µM,Nc1ccc2cc(OC[C@H]3C[C@@H](n4ccc5c(NCCc6ccccc6)ncnc54)[C@H](O)[C@@H]3O)ccc2n1
19,≥ 1 µM,CNc1ccc2ccc(OC[C@H]3O[C@@H](n4cc(C)c5c(N)ncnc54)[C@H](O)[C@@H]3O)cc2n1
20,≤ 0.1 µM,CNc1ccc2ccc(OC[C@H]3O[C@@H](n4cnc5c(N)ncnc54)[C@H](O)[C@@H]3O)cc2n1
21,≥ 1 µM,CN(C[C@H]1C[C@@H](n2ccc3c(N)ncnc32)[C@H](O)[C@@H]1O)c1ccc2ccc(N)nc2c1

row,IC50,SMILES
1,< 0.01 µM,Nc1ncnc2c1ccn2[C@@H]1O[C@H](COc2ccc3ccc(NC4CCC4)nc3c2)[C@@H](O)[C@@H]1F
2,≤ 0.1 µM,CC(C)Nc1ccc2ccc(CC[C@H]3C[C@@H](n4ccc5c(N)ncnc54)[C@H](O)[C@@H]3O)cc2n1
3,≤ 1 µM,CNc1nc2cc(CC[C@H]3O[C@@H](n4cc(-n5cccn5)c5c(N)ncnc54)[C@@H](F)[C@@H]3O)ccc2s1
4,< 0.01 µM,CNc1ccc2ccc(OC[C@H]3O[C@@H](n4cc(Br)c5c(N)ncnc54)C[C@@H]3O)cc2n1
5,≤ 0.1 µM,CNc1ccc2ccc(CC[C@H]3C[C@@H](n4cc(C5CCOCC5)c5c(N)ncnc54)[C@H](O)[C@@H]3O)cc2n1
6,≤ 0.1 µM,CNc1ccc2cc(F)c(CC[C@H]3C[C@@H](n4ccc5c(N)ncnc54)[C@H](O)[C@@H]3O)cc2n1
7,≤ 0.1 µM,Cn1ccc(-c2cn([C@@H]3O[C@H](COc4ccc5cnc(N[C@H]6C[C@@H](N)C6)nc5c4)[C@@H](O)[C@@H]3F)c3ncnc(N)c23)n1
8,< 0.01 µM,CN(C)Cc1cn([C@@H]2O[C@H](COc3ccc4ccc(N5CCC5)nc4c3)[C@@H](O)[C@@H]2F)c2ncnc(N)c12
9,≤ 1 µM,Nc1ncnc2c1c(-n1cccn1)cn2C1CC(COc2ccc3ccc(NC4CCC4)nc3c2)C(O)C1F (centres undefined)
10,≥ 1 µM,Nc1ccc2ccc(OC[C@H]3O[C@H](n4ccc5c(N)ncnc54)[C@H](O)[C@@H]3O)cc2n1
11,≤ 1 µM,Nc1ccc2ccc(CC[C@H]3C[C@@H](n4cc([C@H]5CCOC5)c5c(N)ncnc54)[C@H](O)[C@@H]3O)cc2n1
12,≤ 1 µM,CCCc1cn([C@@H]2C[C@H](CCc3ccc4ccc(N)nc4c3)[C@@H](O)[C@H]2O)c2ncnc(N)c12
13,≥ 1 µM,CCCNc1ncnc2c1ccn2[C@@H]1C[C@H](CCc2ccc3ccc(N)nc3c2)[C@@H](O)[C@H]1O
14,≤ 0.1 µM,Cn1ccc(-c2cn([C@@H]3O[C@H](COc4ccc5cnc(NC6CC6)nc5c4)[C@@H](O)[C@@H]3F)c3ncnc(N)c23)n1
15,≤ 1 µM,Nc1ccc2ccc(CC[C@H]3C[C@@H](n4ccc5c(N)ncnc54)[C@H](O)[C@@H]3O)cc2n1
16,≤ 1 µM,Nc1ccc2ccc(OC[C@H]3C[C@@H](n4ccc5c(N)ncnc54)[C@H](O)[C@@H]3O)cc2n1
17,≤ 0.1 µM,Nc1ncnc2c1ccn2[C@@H]1O[C@H](COc2ccc3ccc(N4CCOCC4)nc3c2)[C@@H](O)[C@H]1O
18,≥ 1 µM,Nc1cc(OC[C@H]2O[C@@H](n3ccc4c(N)ncnc43)[C@@H](F)[C@@H]2O)ccc1C(=O)N1CCNCC1
19,≤ 1 µM,Nc1ccc2ccc(OC[C@H]3O[C@@H](n4ccc5c(NCCc6ccccc6)ncnc54)[C@H](O)[C@@H]3O)cc2n1
20,< 0.01 µM,CC1(C)COC(c2cn([C@@H]3O[C@H](COc4ccc5ccc(N6CCC6)nc5c4)[C@@H](O)[C@@H]3F)c3ncnc(N)c23)=N1
